Experimental data: article PMC9911399, “Two distinct binding modes provide the RNA-binding protein RbFox with extraordinary sequence specificity”
Substitutions are numbered along the chain they refer to; changes in the protein carry UniProt numbers. Some of the results follow.

T1: RBFOX1 RRM RbFoxmut (Fox-RRM*) (Homo sapiens, UniProt Q9NWB1 109-208, R118D;E147R;N151S;E152T)
T1 sequence: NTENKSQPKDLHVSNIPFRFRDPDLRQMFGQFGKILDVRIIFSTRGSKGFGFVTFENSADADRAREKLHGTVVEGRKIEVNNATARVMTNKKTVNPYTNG

B1: CUUGAGA (DNA:RNA)
RNA: GGGAGACCGGAAUUCAGAUUGUCCCUUGAGAUUAAAUCCCGUCGUAGCCACCA
DNA 1: CAATCTGAATTCCGGTCTCCC
DNA 2: TGGTGGCTACGACGGGATT
B2: ACCUUGC (DNA:RNA)
RNA: B1 RNA with C25A, U26C, U27C, G28U, A29U, A31C
DNA 1: CAATCTGAATTCCGGTCTCCC
DNA 2: TGGTGGCTACGACGGGATT
B3: CUUUCUA (DNA:RNA)
RNA: B1 RNA with G28U, A29C, G30U
DNA 1: CAATCTGAATTCCGGTCTCCC
DNA 2: TGGTGGCTACGACGGGATT
B4: GAAUGCC (DNA:RNA)
RNA: GGGAGACCGGAAUUCAGAUUGUCCGAAUGCCUUAAAUCCCGUCGUAGCCACCA
DNA 1: CAATCTGAATTCCGGTCTCCC
DNA 2: TGGTGGCTACGACGGGATT
B5: AAAUUCA (DNA:RNA)
RNA: B4 RNA with G25A, G29U, C31A
DNA 1: CAATCTGAATTCCGGTCTCCC
DNA 2: TGGTGGCTACGACGGGATT
B6: AUUACCA (DNA:RNA)
RNA: B1 RNA with C25A, G28A, A29C, G30C
DNA 1: CAATCTGAATTCCGGTCTCCC
DNA 2: TGGTGGCTACGACGGGATT
B7: UGUCCGG (DNA:RNA)
RNA: B1 RNA with C25U, U26G, G28C, A29C, A31G
DNA 1: CAATCTGAATTCCGGTCTCCC
DNA 2: TGGTGGCTACGACGGGATT
B8: GCAGAGC (DNA:RNA)
RNA: B1 RNA with C25G, U26C, U27A, A31C
DNA 1: CAATCTGAATTCCGGTCTCCC
DNA 2: TGGTGGCTACGACGGGATT
B9: CGCGUCA (DNA:RNA)
RNA: B1 RNA with U26G, U27C, A29U, G30C
DNA 1: CAATCTGAATTCCGGTCTCCC
DNA 2: TGGTGGCTACGACGGGATT
B10: UUUCGGU (DNA:RNA)
RNA: B1 RNA with C25U, G28C, A29G, A31U
DNA 1: CAATCTGAATTCCGGTCTCCC
DNA 2: TGGTGGCTACGACGGGATT
B11: ACGAUGA (DNA:RNA)
RNA: B1 RNA with C25A, U26C, U27G, G28A, A29U
DNA 1: CAATCTGAATTCCGGTCTCCC
DNA 2: TGGTGGCTACGACGGGATT
B12: GAAAUCG (DNA:RNA)
RNA: B4 RNA with U28A, G29U, C31G
DNA 1: CAATCTGAATTCCGGTCTCCC
DNA 2: TGGTGGCTACGACGGGATT
B13: AUGUGGC (DNA:RNA)
RNA: B4 RNA with G25A, A26U, A27G, C30G
DNA 1: CAATCTGAATTCCGGTCTCCC
DNA 2: TGGTGGCTACGACGGGATT
B14: CCUGACU (DNA:RNA)
RNA: B1 RNA with U26C, G30C, A31U
DNA 1: CAATCTGAATTCCGGTCTCCC
DNA 2: TGGTGGCTACGACGGGATT
B15: CGCACCU (DNA:RNA)
RNA: B1 RNA with U26G, U27C, G28A, A29C, G30C, A31U
DNA 1: CAATCTGAATTCCGGTCTCCC
DNA 2: TGGTGGCTACGACGGGATT
B16: AGUGGGU (DNA:RNA)
RNA: B1 RNA with C25A, U26G, A29G, A31U
DNA 1: CAATCTGAATTCCGGTCTCCC
DNA 2: TGGTGGCTACGACGGGATT
B17: GUUUGCG (DNA:RNA)
RNA: B4 RNA with A26U, A27U, C31G
DNA 1: CAATCTGAATTCCGGTCTCCC
DNA 2: TGGTGGCTACGACGGGATT
B18: CCAAGAC (DNA:RNA)
RNA: B4 RNA with G25C, A26C, U28A, C30A
DNA 1: CAATCTGAATTCCGGTCTCCC
DNA 2: TGGTGGCTACGACGGGATT
B19: CCACAAU (DNA:RNA)
RNA: B1 RNA with U26C, U27A, G28C, G30A, A31U
DNA 1: CAATCTGAATTCCGGTCTCCC
DNA 2: TGGTGGCTACGACGGGATT
B20: UCGUACG (DNA:RNA)
RNA: B4 RNA with G25U, A26C, A27G, G29A, C31G
DNA 1: CAATCTGAATTCCGGTCTCCC
DNA 2: TGGTGGCTACGACGGGATT
B21: AAAAGUU (DNA:RNA)
RNA: B4 RNA with G25A, U28A, C30U, C31U
DNA 1: CAATCTGAATTCCGGTCTCCC
DNA 2: TGGTGGCTACGACGGGATT
B22: GAAAACU (DNA:RNA)
RNA: B4 RNA with U28A, G29A, C31U
DNA 1: CAATCTGAATTCCGGTCTCCC
DNA 2: TGGTGGCTACGACGGGATT
B23: AAGUGGC (DNA:RNA)
RNA: B4 RNA with G25A, A27G, C30G
DNA 1: CAATCTGAATTCCGGTCTCCC
DNA 2: TGGTGGCTACGACGGGATT
B24: CGACCGU (DNA:RNA)
RNA: B1 RNA with U26G, U27A, G28C, A29C, A31U
DNA 1: CAATCTGAATTCCGGTCTCCC
DNA 2: TGGTGGCTACGACGGGATT
B25: ACGCGGU (DNA:RNA)
RNA: B1 RNA with C25A, U26C, U27G, G28C, A29G, A31U
DNA 1: CAATCTGAATTCCGGTCTCCC
DNA 2: TGGTGGCTACGACGGGATT
B26: GGAGGUC (DNA:RNA)
RNA: B4 RNA with A26G, U28G, C30U
DNA 1: CAATCTGAATTCCGGTCTCCC
DNA 2: TGGTGGCTACGACGGGATT
B27: UAGUGAA (DNA:RNA)
RNA: B4 RNA with G25U, A27G, C30A, C31A
DNA 1: CAATCTGAATTCCGGTCTCCC
DNA 2: TGGTGGCTACGACGGGATT
B28: ACCUAUA (DNA:RNA)
RNA: B1 RNA with C25A, U26C, U27C, G28U, G30U
DNA 1: CAATCTGAATTCCGGTCTCCC
DNA 2: TGGTGGCTACGACGGGATT
B29: GACAUUG (DNA:RNA)
RNA: B4 RNA with A27C, U28A, G29U, C30U, C31G
DNA 1: CAATCTGAATTCCGGTCTCCC
DNA 2: TGGTGGCTACGACGGGATT
B30: CCAUUCC (DNA:RNA)
RNA: B4 RNA with G25C, A26C, G29U
DNA 1: CAATCTGAATTCCGGTCTCCC
DNA 2: TGGTGGCTACGACGGGATT
B31: UUUCAAA (DNA:RNA)
RNA: B1 RNA with C25U, G28C, G30A
DNA 1: CAATCTGAATTCCGGTCTCCC
DNA 2: TGGTGGCTACGACGGGATT

Molecular target: T1, RBFOX1 RRM RbFoxmut (Fox-RRM*)
Experiment: EMSA; HiTS-Eq, 1 nM pool, 10 min; buffer printed only for the single-RNA assays: 10 mM Tris pH 7.5, 150 mM NaCl, 3.4 mM EDTA, 0.001% NP-40, 30 C
Conditions: tags: His6 N-terminal (pET28a); label: 5' 32P
How it was run: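 Relative association constants, normalised to the cognate motif, were derived by comparing read counts of each RNA species with those of the control reaction. The RNA sequenced was the free fraction, separated by 8% native PAGE after a 10 min equilibration in 50 µL of 1 nM 5′-radiolabelled RNA (7 randomized nucleotides) with increasing concentrations of purified wild-type or mutant RbFox RRM.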

First: B1
Second: B2
The binding signal of the first is higher: 0.109 KA relative to UGCAUGU for the first, 0.0942 KA relative to UGCAUGU for the second.

Compared with B3, B4 is higher in binding signal: 0.0908 KA relative to UGCAUGU for the first, 0.356 KA relative to UGCAUGU for the second.

First: B5
Second: B6
The binding signal of the first is lower: 0.102 KA relative to UGCAUGU for the first, 0.115 KA relative to UGCAUGU for the second.

First: B7
Second: B8
The binding signal of the first is higher: 0.0882 KA relative to UGCAUGU for the first, 0.0651 KA relative to UGCAUGU for the second.

First: B9
Second: B10
The binding signal of the first is lower: 0.078 KA relative to UGCAUGU for the first, 0.0835 KA relative to UGCAUGU for the second.

First: B11
Second: B12
The binding signal of the first is higher: 0.0892 KA relative to UGCAUGU for the first, 0.0585 KA relative to UGCAUGU for the second.

First: B13
Second: B14
The binding signal of the first is higher: 0.159 KA relative to UGCAUGU for the first, 0.0744 KA relative to UGCAUGU for the second.

First: B15
Second: B16
The binding signal of the first is lower: 0.116 KA relative to UGCAUGU for the first, 0.133 KA relative to UGCAUGU for the second.

First: B17
Second: B18
The binding signal of the first is higher: 0.255 KA relative to UGCAUGU for the first, 0.0848 KA relative to UGCAUGU for the second.

First: B19
Second: B20
The binding signal of the first is lower: 0.0516 KA relative to UGCAUGU for the first, 0.131 KA relative to UGCAUGU for the second.

Compared with B21, B22 is lower in binding signal: 0.0927 KA relative to UGCAUGU for the first, 0.0678 KA relative to UGCAUGU for the second.

Compared with B23, B24 is lower in binding signal: 0.134 KA relative to UGCAUGU for the first, 0.0898 KA relative to UGCAUGU for the second.

Compared with B25, B26 is higher in binding signal: 0.124 KA relative to UGCAUGU for the first, 0.131 KA relative to UGCAUGU for the second.

First: B27
Second: B28
The binding signal of the first is lower: 0.0948 KA relative to UGCAUGU for the first, 0.132 KA relative to UGCAUGU for the second.

First: B29
Second: B30
The binding signal of the first is higher: 0.103 KA relative to UGCAUGU for the first, 0.0582 KA relative to UGCAUGU for the second.

With B31 the binding signal was 0.0706 KA relative to UGCAUGU.
